This is one part of the list. A value given as a limit tells only on which side of the number the result lay.

First the molecules themselves.
B1: PhoQ; a variant is named by its letters at X, in order, P23837 (parent)
chain: MKKLLRLFFPLSLRVRFLLATAAVVLVLSLAYGMVALIGYSVSFDKTTFRLLRGESNLFYTLAKWENNKLHVELPENIDKQSPTMTLIYDENGQLLWAQRDVPWLMKMIQPDWLKSNGFHEIEADVNDTSLLLSGDHSIQQQLQEVREDDDDAEMTHSVAVNVYPATSRMPKLTIVVVDTIPVELKSSYMVWSWFIYVLSANLLLVIPLLWVAAWWSLRPIEALAKEVRELEEHNRELLNPATTRELTSLVRNLNRLLKSERERYDKYRTTLTDLTHSLKTPLXXLQXXLRSLRSEKMSVSDAEPVMLEQISRISQQIGYYLHRASMRGGTLLSRELHPVAPLLDNLTSALNKVYQRKGVNISLDISPEISFVGEQNDFVEVMGNVLDNACKYCLEFVEISARQTDEHLYIVVEDDGPGIPLSKREVIFDRGQRVDTLRPGQGVGLAVAREITEQYEGKIVAGESMLGGARMEVIFGRQHSAPKDE

In this test the parent is B1. Nature of the test: enrichment ratio after two sorts for PhoP signalling (ratio (wild type AVST 3.29)); higher = more functional. The conditions noted are these: with PhoP (E. coli).
On to FQCC, for which the enrichment ratio was at most 0.25.
The figure for NIFF is at most 0.25.
Next, YFTL: at most 0.25; GRNV: at most 0.25.
For DEHA, the enrichment ratio was at most 0.25.
The figure for IWTR is at most 0.25; for VTEQ it is at most 0.25; for FRYK it is at most 0.25.
Regarding AWHS, the enrichment ratio was at most 0.25.
Next, FWQT: at most 0.25.
Next, EFPF: at most 0.25.
On to GYML, for which the enrichment ratio is at most 0.25.
Regarding SIFY, the enrichment ratio was at most 0.25.
Next, RQSP: at most 0.25; SSHR: at most 0.25; MAMG: 2.41.
The figure for WTCS is at most 0.25; for SVLQ it is 6.06; for DNYP it is at most 0.25.
Next, TASQ: 10.7; LIQF: at most 0.25; GAAR: at most 0.25.
On to AAGA, for which the enrichment ratio is at most 0.25.
Next, HDTP: at most 0.25.
Next, WRKR: at most 0.25; THMH: 13.2.
Next, QGST: 4.41.
For the variant DAFQ, the enrichment ratio is at most 0.25.
Next, ISCE: at most 0.25.
Consider GAHM, for which the enrichment ratio was at most 0.25.
The figure for YAME is at most 0.25; for NERN it is at most 0.25.
The figure for IHPQ is at most 0.25; for MEMC it is 4.97; for QHSG it is at most 0.25.
Regarding RNLP, the enrichment ratio was at most 0.25.
Turning to LMTK, the enrichment ratio was at most 0.25.
The figure for YWFP is at most 0.25; for YRCY it is at most 0.25; for QEIV it is at most 0.25.
Next, PGSM: at most 0.25; PAYH: at most 0.25.
Next, PPSF: at most 0.25; VKMA: at most 0.25.
In the case of YDGN, the enrichment ratio is at most 0.25.
Next, TYCA: 12.1; DWQM: at most 0.25.
As for LWYE, the enrichment ratio is at most 0.25.
For the variant YHWI, the enrichment ratio is at most 0.25.
The figure for PYGS is 0.392; for SIDP it is at most 0.25; for MHVM it is at most 0.25.
Next, WDQG: at most 0.25; MWSF: at most 0.25; LLHG: at most 0.25.
The figure for EIDA is at most 0.25; for GDIV it is 8.68.
Consider FLWY, for which the enrichment ratio is at most 0.25.
Next, NTAQ: at most 0.25; FRCM: at most 0.25; QHMD: at most 0.25.
Next, FESP: at most 0.25; TALT: 9.61.
For QQGI, the enrichment ratio was at most 0.25.
Next, RWIH: at most 0.25.
The figure for FIHD is at most 0.25.
As to VNRF, the enrichment ratio is at most 0.25.
Next, RKSH: at most 0.25; LAGP: at most 0.25; MSFT: 2.91.
The figure for RSNY is at most 0.25.
Turning to DPEC, the enrichment ratio is at most 0.25.
The figure for LMAV is at most 0.25.
The figure for GCYV is at most 0.25.
Next, HHHF: at most 0.25; YTIE: at most 0.25; YIFN: at most 0.25.
Consider FYIR, for which the enrichment ratio is at most 0.25.
Turning to TKEW, the enrichment ratio was at most 0.25.
The figure for EACI is at most 0.25; for TGIK it is at most 0.25.
Consider GMHN, for which the enrichment ratio is at most 0.25.
Next, LKHS: at most 0.25.
Regarding TSYE, the enrichment ratio was at most 0.25.
Next, ENRV: at most 0.25; QLSP: at most 0.25.
The figure for DFQF is at most 0.25; for IGDS it is at most 0.25; for LMMT it is at most 0.25.
DARA: the enrichment ratio is at most 0.25.
Next, KFKF: at most 0.25.
The figure for FWST is at most 0.25.
Next, KCTM: at most 0.25; ICYC: at most 0.25.
PFTD: the enrichment ratio is at most 0.25.
The figure for WANW is at most 0.25; for HFFL it is at most 0.25; for EVLL it is at most 0.25.
Next, YLQL: at most 0.25; HFHI: at most 0.25; HCIK: at most 0.25.
The figure for LRHG is at most 0.25; for IRMG it is at most 0.25; for PYMA it is at most 0.25.
As for GFGQ, the enrichment ratio was at most 0.25.
Consider PPRT, for which the enrichment ratio is at most 0.25.
Turning to YDAL, the enrichment ratio was at most 0.25.
The figure for GGAQ is at most 0.25.
The figure for HGCL is 5.15.
Next, GRSE: at most 0.25.
SVML: the enrichment ratio is 8.53.
The figure for NMHP is at most 0.25; for ITES it is at most 0.25.
The figure for MFRK is at most 0.25; for DLWS it is at most 0.25; for TRMP it is at most 0.25.
Take WLHK: the enrichment ratio was at most 0.25.
Turning to EMDY, the enrichment ratio was at most 0.25.
As for RVVG, the enrichment ratio is at most 0.25.
Next, NQAA: at most 0.25; TQLG: 16.7.
Next, FSMK: at most 0.25.
The figure for MVVF is at most 0.25.
Take VGKE: the enrichment ratio was at most 0.25.
As for EGML, the enrichment ratio is at most 0.25.
Next, RIVH: at most 0.25; NMRP: at most 0.25.
Next, TKPT: at most 0.25; FSYW: at most 0.25.
The figure for ISHC is at most 0.25.
As to APAK, the enrichment ratio is at most 0.25.
Next, VREN: at most 0.25; NMSG: at most 0.25.
The figure for YDGF is at most 0.25; for PNEK it is at most 0.25; for NEFE it is at most 0.25.
Next, ETKC: at most 0.25; AAAH: 3.1; HLFT: at most 0.25.
Take FKTA: the enrichment ratio was at most 0.25.
Next, GFQH: at most 0.25; LECD: at most 0.25; QAFI: at most 0.25.
The figure for YGHY is at most 0.25.
Next, LCNK: at most 0.25; AMMC: at most 0.25.
For KHAQ, the enrichment ratio was at most 0.25.
As to GGYW, the enrichment ratio is at most 0.25.
The figure for IPGY is at most 0.25.
MRMA: the enrichment ratio is at most 0.25.
Next, HDCG: at most 0.25; HNKE: at most 0.25; SGWP: at most 0.25.

The values above are taken from a collection of fitness landscapes (doi:10.1126/science.1257360).
